The text below walks through data of the supplement of paper PMC11417369.

± gives the standard deviation of the averaged measurements. This is one part of the list.

In the experiment the test system is PfAP2-EXP AP2 domain (GST-tagged). Kind of experiment: gcPBM binding intensity (ln(normalized median fluorescence intensity)); higher = stronger DNA binding. The method in brief:
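Using an Agilent 4 × 180k array, primer-extended double-stranded 36-bp intergenic genomic probes and negative controls were exposed for 1 h to GST-fused P. falciparum DNA-binding domains expressed in E. coli. Binding was carried out in 1× PBS with 1% milk, 0.2 mg/ml BSA, 0.5% salmon testes DNA and 0.03% Triton X-100, and protein was detected with Alexa488 anti-GST antibody and a 488 nm scan. Binding intensity is the highest Masliner-normalised natural-log median intensity across replicate spots of either probe orientation.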
Consider “ATATAAATAAAATATACACACATACTGTTCATTTAA [CACACA_site7880]”, for which the “gcPBM binding intensity (ln)” value is 8.28 ± 0.26.

On to “AAGTTAATGAAAAAATGTACCCAGAGTATTTTAAAA [XGTACX_site2997]”, for which the “gcPBM binding intensity (ln)” value turned out to be 8.49 ± 0.32.

With “AAAAAAAAAAAAGATTGTACAGAATACTTTTAAAAT [XGTACX_site3576]”, the “gcPBM binding intensity (ln)” value was found to be 8.105 ± 0.007.

Take “TGGGAAAATAATATTTATTTTATATATAAATATATA [CACACA_negctrl_site121]”: the “gcPBM binding intensity (ln)” value stood at 7.92 ± 0.3.

“TATTGTAATATTAGCACACATTACCTCACTACAAAT [CACACA_site5419]”: the “gcPBM binding intensity (ln)” value turned out to be 8.72 ± 0.4.

In the case of “AACATGAAAATATATGCATTTGTATATATATATATA [TGCATGCA_negctrl_site16]”, the “gcPBM binding intensity (ln)” value stood at 10 ± 0.31.

On to “AAAATACTAGATAGGGGAAAAAAAAAAAAAAAAAAA [CACACA_negctrl_site1732]”, for which the “gcPBM binding intensity (ln)” value was 8.18 ± 0.71.

In the case of “AAAGCACCCATGCACACACACAAAGGAAAAGAAAAA [CACACA_site6249]”, the “gcPBM binding intensity (ln)” value was 8.55 ± 0.46.

Turning to “ATAAATGATAAAATTGCATGTGAATGTGAAAATATT [TGCATGCA_site251]”, the “gcPBM binding intensity (ln)” value is 9.02 ± 0.44.

Take “AATAAAACCCCGAAATCACACATTAAATGAAAAATA [CACACA_site4732]”: the “gcPBM binding intensity (ln)” value came to 9.18 ± 0.83.

For the sequence “AAGTATGTCGACTGTTGTACTTTTATCATTTATTAT [XGTACX_site1129]”, the “gcPBM binding intensity (ln)” value amounted to 8.7 ± 0.43.

In the case of “ATATACTATGATAATACATGCGATAATACATTTTTA [TGCATGCA_site387]”, the “gcPBM binding intensity (ln)” value is 8.56 ± 0.16.

On to “AATAAAAAAATGTCACGTACTTATTTTATTAAACCT [XGTACX_site3031]”, for which the “gcPBM binding intensity (ln)” value was 8.44 ± 0.35.

As to “TATTTATCATCATATTGTACATTATATATATAAAAT [XGTACX_site6675]”, the “gcPBM binding intensity (ln)” value was found to be 8.59 ± 0.39.

As to “GTATGGCGTATCATATGTACTAAAAAAAAATAAAAA [XGTACX_site5101]”, the “gcPBM binding intensity (ln)” value came to 8.66 ± 0.52.

Regarding “ATATATATATATAGTGCACACATATAAAATATATAT [CACACA_site8884]”, the “gcPBM binding intensity (ln)” value amounted to 10.29 ± 0.021.

In the case of “TTATATGCTCAATGTTGTACATGTAGATATATATAT [XGTACX_site8211]”, the “gcPBM binding intensity (ln)” value amounted to 9.315 ± 0.035.

Turning to “ATCTGTCGACAGGACAGTACACAGTAGCCAGTAACT [XGTACX_site2001]”, the “gcPBM binding intensity (ln)” value came to 8.6 ± 0.51.

“TTTTTTAATTGTGATACGTATATTATTTAATGATAA [GTGCAC_negctrl_site704]”: the “gcPBM binding intensity (ln)” value stood at 8.58 ± 0.61.

Regarding “TGTATATTTTTTATTACACACTTTTTACTTTTTAGA [CACACA_site3069]”, the “gcPBM binding intensity (ln)” value stood at 8.46 ± 0.35.

For “ATAAAATATAGATGCACACACATATAGATTTCATAC [CACACA_site7636]”, the “gcPBM binding intensity (ln)” value amounted to 8.54 ± 0.26.

Consider “AGTATATACACGTGCGTGCACAGATATTCTTTTTTT [GTGCAC_site9398]”, for which the “gcPBM binding intensity (ln)” value turned out to be 8.6 ± 0.3.

With “GATATAATTATATTATGGTGTTTTTGATAGATATTT [GTGCAC_negctrl_site313]”, the “gcPBM binding intensity (ln)” value is 8.4 ± 0.46.

Consider “TATTTTAAAGAGAAAACATGCATTATATAGAACATT [TGCATGCA_site328]”, for which the “gcPBM binding intensity (ln)” value was found to be 8.64 ± 0.45.

As for “ATCAAACCATAAAAGAGTACAAAAGGATGATATTTT [XGTACX_site8883]”, the “gcPBM binding intensity (ln)” value worked out at 8.79 ± 0.59.

In the case of “ATGGAAATATATACATGTACATAAATATATATATAT [XGTACX_site8391]”, the “gcPBM binding intensity (ln)” value came to 9.96 ± 0.13.

On to “AGTAGTCTGGAGAAGAGTACATAGTATCTGGTAACC [XGTACX_site2043]”, for which the “gcPBM binding intensity (ln)” value was 8.67 ± 0.48.

In the case of “AGTGGACTTTTTTTTTTTTTTTTTTTTTTTTTATTA [CACACA_negctrl_site547]”, the “gcPBM binding intensity (ln)” value worked out at 8.11 ± 0.6.

Turning to “ATGTTTTGCATATATTATATATTTATTTATTTTTTT [CACACA_negctrl_site729]”, the “gcPBM binding intensity (ln)” value turned out to be 8.41 ± 0.33.

As to “AGAGAGATGACAAAAAGATGAATAACGTTAAGGGAT [XGTACX_negctrl_site120]”, the “gcPBM binding intensity (ln)” value is 9.24 ± 0.56.

“TATTTATTGTGATACTTATATTATTTTATGATTAAA [CACACA_negctrl_site901]”: the “gcPBM binding intensity (ln)” value is 8.27 ± 0.37.

Regarding “AATTATATTCTATTCACACATATTCCAACCTCTTTT [CACACA_site4670]”, the “gcPBM binding intensity (ln)” value was 8.85 ± 0.52.

On to “AAAAGATAATTATGCACACACACACCCAGACACAAC [CACACA_site5428]”, for which the “gcPBM binding intensity (ln)” value came out at 9.11 ± 0.4.

For “ATGAATATAATAAAGAAACACACGTATACATAATGA [CACACA_site1355]”, the “gcPBM binding intensity (ln)” value came out at 8.8 ± 0.54.

Turning to “TGTATGTTGTAAAATTGTACATATATATTATATTTA [XGTACX_site4883]”, the “gcPBM binding intensity (ln)” value was 8.35 ± 0.28.

Turning to “TGAAAGAACCTGATTACACACATAAATTATATATAT [CACACA_site26]”, the “gcPBM binding intensity (ln)” value amounted to 8.43 ± 0.32.

In the case of “TTTGATGGTACACGTACACACCTTGCAAATATTTTT [CACACA_site4645]”, the “gcPBM binding intensity (ln)” value was 8.89 ± 0.37.

Consider “AGTTCTTCGTACCAAAAAACGGCACGCATATGTATA [TGCATGCA_negctrl_site469]”, for which the “gcPBM binding intensity (ln)” value was determined as 8.56 ± 0.39.

Consider “TGTATTCATACATGCACACGTACATATTTAAATATA [CACACA_site3926]”, for which the “gcPBM binding intensity (ln)” value worked out at 9.05 ± 0.18.

Consider “TACTACTATCTATATTGTACAAAAGGTGCCTACAAA [XGTACX_site4267]”, for which the “gcPBM binding intensity (ln)” value came to 8.82 ± 0.26.

Consider “TATTTCAAAAAAAAAAAAAATAAAAAACAACAACAA [CACACA_negctrl_site893]”, for which the “gcPBM binding intensity (ln)” value came out at 8.54 ± 0.45.

Take “AAAAAAAATTATATATGTACTTATTAATCCTTATAT [XGTACX_site1389]”: the “gcPBM binding intensity (ln)” value came to 8.13 ± 0.2.

On to “ATTTATATATCGCCCACACACATGTGATTATTTATA [CACACA_site6905]”, for which the “gcPBM binding intensity (ln)” value came to 9.1 ± 0.42.
